{
  "source": "PubChem BioAssay AID743279",
  "about": "(National Center for Advancing Translational Sciences (NCATS), 2014)",
  "note": "Screen size: about 360,000 compounds; about 17,000 (4.7%) were called active. The inconclusive results got no clear call from the source; some entries with a clear call stand among them for comparison. Cut-off read from the data, not from the text of the source: active = activity change below about -50%; inconclusive = mostly about -30% to -49%; inactive = weaker than that.",
  "data": [
    {"experiment": "qHTS for Inhibitors of Inflammasome Signaling: IL-1-beta AlphaLISA Primary Screen", "conditions": "THP-1 LPS/ATP IL-1B secretion, 16 h; at 57.5 µM, stronger effect = lower value", "source_text": "Inflammasomes are a set of intracellular multi-protein complexes that enable autocatalytic activation of inflammatory caspases and drive the innate immune response to counter harmful agents. […] A qHTS assay, based on AlphaLISA technology, was developed to screen the Molecular Libraries Small Molecule Repository (MLSMR) to look for novel inflammasome inhibitors. The assay detects IL-1B using AlphaLISA anti-IL-1B acceptor and donor beads. A decreased emission signal, indicating reduced IL-1B secretion, is the desired outcome for this assay. NIH Chemical Genomics Center [NCGC] NIH Molecular Libraries Probe Centers Network [MLPCN] MLPCN Grant: MH095513 Assay Provider: Shyam Biswal Ph.D., Johns Hopkins University Immunity. 2012 Jul 27;37(1):85-95. PMID: 22819042 [2] Curr Pharm Des. 2012;18(16):2320-8. PMID: 22390695\nThree microliters containing 3000 THP-1 cells were dispensed into the wells of solid, white, tissue culture treated Greiner 1,536-well plates. Library compounds and positive control, Glyburide, were pin-transferred (23 nL) by a Kalypsys pin-tool equipped with a 1,536-pin array, resulting in final compound concentration ranges of 2.5 nM to 57.5 uM. After 1 hr of cell culture incubation (37 °C, 5% CO2), 1 microL of 1 microg/mL lipopolysaccharide (250 ng/mL, final) and 5 mM ATP (1.25 mM, final) were added to stimulate the cells. After 16 hr of cell culture incubation with the compounds, 1.5 uL of anti-IL-1B acceptor beads (6 ug/mL, final) and biotinylated antibody (0.6 nM, final) were added to the plate, followed by a 1 hr incubation at ambient temperature. To detect the secreted IL-1B, 1.5 uL of AlphaLISA SA-Donor beads (24 ug/mL, final) were added, followed by 30 min of incubation in the dark at ambient temperature. The AlphaLISA signal was read by a PerkinElmer EnVision plate reader with an ultrasensitive luminescence detector and 1536 Plate HTS AlphaScreen aperture (excitation of 680nm and emission of 615nm).", "values": [
      {"molecule": "COc1ccc(-c2cccc(C3CC=CC4C3C(=O)N(Cc3ccccc3)C4c3ccc4ccccc4c3)c2)cc1", "note": "(stereo not drawn); note: % is set by controls: 0 for no effect and ±100 for the full control effect", "activity change": "inactive: 43.4%"},
      {"molecule": "Cc1ccccc1C(=O)NCC(=O)c1ccccc1", "activity change": "inconclusive: -37.2%"},
      {"molecule": "CCOc1ccccc1NC(=O)c1c(NC(=O)CCC(=O)O)sc2c1CCCCC2", "activity change": "inactive: 0.112%"},
      {"molecule": "N/C(=N\\OC(=O)CC(c1ccccc1)c1ccccc1)c1cccnc1", "activity change": "inconclusive: -46%"},
      {"molecule": "N=C1C2=C3Sc4ccccc4N3CCCC2=NN1c1cccc(S(=O)(=O)O)c1", "activity change": "inactive: 7.11%"},
      {"molecule": "CC(=O)c1cccc(NC(=O)CN(c2ccc(C)cc2)S(=O)(=O)c2cccc3nonc23)c1", "activity change": "inactive: -8.4%"},
      {"molecule": "CC(C)(C)n1nnnc1C(c1ccncc1)N(Cc1ccccc1)Cc1ccco1", "note": "(stereo not drawn)", "activity change": "inconclusive: -33.9%"},
      {"molecule": "Cc1ccc2cc(CCNS(=O)(=O)c3ccc(Br)cc3)c(=O)[nH]c2c1C", "activity change": "inactive: -22.7%"},
      {"molecule": "C=CCC1(O)C(=O)N2C(=C1C(=O)OCC)c1ccc3ccccc3c1CC2(C)C", "note": "(stereo not drawn)", "activity change": "inconclusive: -35.7%"},
      {"molecule": "COc1cccc(CNC(=O)CCC2CCCN(C/C=C/c3ccccc3OC)C2)c1", "note": "(stereo not drawn)", "activity change": "inconclusive: -42.1%"},
      {"molecule": "CC(C)Sc1cc(Cl)nc(NC(=O)Nc2ccccc2)n1", "activity change": "inconclusive: -49.9%"},
      {"molecule": "CC[C@]12c3[nH]c4ccc(Cl)cc4c3CCN1C(=O)[C@@H](CC(=O)NCc1cccc(C(F)(F)F)c1)C[C@@H]2C(=O)N1CCN(C(=O)C2CC2)CC1", "activity change": "inconclusive: -42.9%"},
      {"molecule": "Cc1ccc(NC(=O)CCNC(=O)N2CC(=O)Nc3ccccc32)cc1Cl", "activity change": "inactive: 27%"},
      {"molecule": "COc1ccc(NC(=O)c2cc(C3CCCCN3C(=O)c3ccccc3)on2)c(C)c1", "note": "(stereo not drawn)", "activity change": "inactive: 11%"},
      {"molecule": "CCOc1cc(/C=C2\\SC(N3CCCCC3)=NC2=O)ccc1O", "activity change": "inconclusive: -31.4%"},
      {"molecule": "CC(C)C1C(=O)N(Cc2cn(CCC3OCCO3)nn2)CCS(=O)(=O)N1Cc1ccc(-c2ccncc2)cc1", "note": "(stereo not drawn)", "activity change": "inactive: 17.6%"},
      {"molecule": "COc1ccc(-n2c(-c3cccc(C)c3[N+](=O)[O-])n[nH]c2=S)cc1", "activity change": "inconclusive: -36.2%"},
      {"molecule": "CCN(CC)S(=O)(=O)c1ccc(N2CCOCC2)c(NC(=O)c2c3c(nc4ccccc24)CCC3)c1", "activity change": "inactive: 6.41%"},
      {"molecule": "Cc1cccc(C(=O)N2CCC(Cc3ccccc3)CC2)c1[N+](=O)[O-]", "activity change": "active: -86.9%"},
      {"molecule": "Cn1c(C2CCCN2C(=O)OC(C)(C)C)n[nH]c1=S", "note": "(stereo not drawn)", "activity change": "inactive: 0%"},
      {"molecule": "O=C(Nc1ccccc1N1CCCC1)c1ccc([N+](=O)[O-])o1", "activity change": "active: -93%"},
      {"molecule": "c1cc(CNCCNCc2ccncc2)ccn1", "activity change": "inactive: -2.75%"},
      {"molecule": "O=C1Nc2ccc(Br)cc2C1=Nc1cccnc1", "activity change": "inactive: 32.9%"},
      {"molecule": "CCCNc1c(NS(=O)(=O)c2ccc(C)cc2C)c(=O)oc2ccccc12", "activity change": "inconclusive: -32.4%"},
      {"molecule": "CCC(=O)N1CCN(c2cc(N3CCN(C)CC3)c(F)cc2[N+](=O)[O-])CC1", "activity change": "inactive: -2.75%"},
      {"molecule": "O=C(O)c1ccccc1-c1ccccc1C(=O)Nc1ccc2c(c1)oc(=O)c1ccccc12", "activity change": "inconclusive: -46.7%"},
      {"molecule": "COc1ccc(-n2c(-c3ccc(Cl)cc3)c[n+]3c2CCc2ccccc2-3)cc1", "activity change": "active: -54.9%"},
      {"molecule": "CC1CCN(c2nc3ccc(C(=O)NCCCN4CCCCC4C)cc3s2)CC1", "note": "(stereo not drawn)", "activity change": "inconclusive: -35.4%"},
      {"molecule": "Oc1ccccc1-c1nc(N2CCCC2)c2ccccc2n1", "activity change": "inconclusive: -43.8%"},
      {"molecule": "O=C(/C=C/c1ccc(N2CCCCC2)c([N+](=O)[O-])c1)c1ccc(O)cc1", "activity change": "active: -94.9%"},
      {"molecule": "COC(=O)c1ccc(NS(=O)(=O)c2cc3c4c(c2)CCN4C(=O)CC3)cc1", "activity change": "inactive: -7.96%"},
      {"molecule": "O=C(NCc1ccccc1)C1=C[C@H](c2coc3ccccc3c2=O)C[C@H](OCc2ccc(CO)cc2)O1", "activity change": "inconclusive: -30.2%"},
      {"molecule": "CCCCNC(=O)C1(C)CCN1C(=O)c1ccccc1Br", "note": "(stereo not drawn)", "activity change": "inconclusive: -33.3%"},
      {"molecule": "CCOC(=O)N1CCN(C(=O)CCc2ccc(S(=O)(=O)NCCc3ccccc3)cc2)CC1", "activity change": "inactive: 9.84%"},
      {"molecule": "OC(c1ccccc1)(c1ccccc1)c1nccc2ccccc12", "activity change": "active: -55.1%"},
      {"molecule": "CC[C@H](C)[C@H]1CNC(=S)N1CC1CCN(CCCCc2ccccc2)CC1", "activity change": "inconclusive: -36.9%"},
      {"molecule": "Cn1cc(/C=C2/SC(=O)N(c3ccccc3)C2=O)c2ccccc21", "activity change": "inactive: 4.29%"},
      {"molecule": "CCN1CCN(C(=O)c2ccccc2N(Cc2ccccc2)S(=O)(=O)c2ccc(OC)cc2)CC1", "activity change": "inconclusive: -31.7%"},
      {"molecule": "COc1ccccc1-c1c(C)nn2c(-c3ccccc3)cc(C)nc12", "activity change": "active: -70.3%"},
      {"molecule": "CC(C)C(=O)NC(C)C(c1cccs1)N1CCN(c2ccccc2)CC1", "note": "(stereo not drawn)", "activity change": "inactive: 0%"},
      {"molecule": "Cc1ccc2c(C)nc(Nc3nc(CSc4nnc(C)s4)cc(=O)[nH]3)nc2c1", "activity change": "inconclusive: -46.3%"},
      {"molecule": "O=C(NC(=S)Nc1cc(C(F)(F)F)ccc1N1CCOCC1)c1ccco1", "activity change": "inconclusive: -30.9%"},
      {"molecule": "S=c1nc[nH]c2c1cnn2-c1ccccc1", "activity change": "inactive: -2.98%"},
      {"molecule": "Cc1cccc(NC(=O)COC(=O)c2cc(C)oc2C)c1", "activity change": "inconclusive: -34.6%"},
      {"molecule": "COc1ccc(CNc2nc(S(=O)(=O)c3ccccc3)c(Cl)s2)cc1OC", "activity change": "inconclusive: -35.7%"},
      {"molecule": "Cc1nc2cc(C(=O)NCCN3CCOCC3)ccc2n1-c1ccc(F)cc1F", "activity change": "inactive: -14.6%"},
      {"molecule": "COCCNC(=O)c1c(N)n(-c2ccccc2)c2nc3ccccc3nc12", "activity change": "inconclusive: -36.2%"},
      {"molecule": "O=C(Oc1ccc([N+](=O)[O-])cc1)c1cncc(Br)c1", "activity change": "inactive: 23.1%"},
      {"molecule": "CCCCN1C(=N)N([C@@H](CCC)CN2CCC[C@H]2CN2C(N)=NC[C@@H]2Cc2ccccc2)C[C@H]1Cc1ccccc1", "activity change": "inconclusive: -45.3%"},
      {"molecule": "O=[N+]([O-])c1cc(S(=O)(=O)N2CCCCC2)ccc1NCCN1CCOCC1", "activity change": "inactive: -1.24%"},
      {"molecule": "COc1cc(C2C(C#N)=C(N)OC3=C2C(=O)CC(C)(C)C3)cc([N+](=O)[O-])c1O", "note": "(stereo not drawn)", "activity change": "inactive: -20.5%"},
      {"molecule": "CSCCC(NC(=O)c1cccc(S(=O)(=O)N2CCN(C(C)=O)CC2)c1)c1nc2ccccc2[nH]1", "note": "(stereo not drawn)", "activity change": "inconclusive: -32.8%"},
      {"molecule": "COc1ccc2cc(C(=O)N/N=C/c3cc(OC)c(OC)c(OC)c3)[nH]c2c1", "activity change": "inconclusive: -43.9%"}
    ]}
  ]
}
